No constants are given. Whether binding was seen depends on the method and setting. Some entries that bind do so weakly or less than the wild type.
T1: G4BD-Rps2.R95R97K99>A (S. cerevisiae) (UniProt P25443)
T1 sequence: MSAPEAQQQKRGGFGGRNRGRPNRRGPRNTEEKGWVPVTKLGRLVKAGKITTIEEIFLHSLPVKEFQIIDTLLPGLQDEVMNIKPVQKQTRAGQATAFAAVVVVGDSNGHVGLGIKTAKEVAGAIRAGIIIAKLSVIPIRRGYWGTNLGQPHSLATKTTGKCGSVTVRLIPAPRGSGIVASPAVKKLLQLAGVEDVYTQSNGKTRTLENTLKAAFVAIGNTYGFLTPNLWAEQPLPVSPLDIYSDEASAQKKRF

T2: Rps2.R95R97K99>A-G4BD (S. cerevisiae) (UniProt P25443)
T2 sequence: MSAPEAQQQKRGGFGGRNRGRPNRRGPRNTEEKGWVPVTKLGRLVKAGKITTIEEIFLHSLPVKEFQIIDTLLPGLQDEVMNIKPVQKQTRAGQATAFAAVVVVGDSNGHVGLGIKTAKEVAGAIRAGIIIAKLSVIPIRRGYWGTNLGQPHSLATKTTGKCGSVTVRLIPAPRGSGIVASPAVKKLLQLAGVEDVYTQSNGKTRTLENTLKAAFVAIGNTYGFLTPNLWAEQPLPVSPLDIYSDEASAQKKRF

T3: G4BD-Rps2 (S. cerevisiae) (UniProt P25443)
T3 sequence: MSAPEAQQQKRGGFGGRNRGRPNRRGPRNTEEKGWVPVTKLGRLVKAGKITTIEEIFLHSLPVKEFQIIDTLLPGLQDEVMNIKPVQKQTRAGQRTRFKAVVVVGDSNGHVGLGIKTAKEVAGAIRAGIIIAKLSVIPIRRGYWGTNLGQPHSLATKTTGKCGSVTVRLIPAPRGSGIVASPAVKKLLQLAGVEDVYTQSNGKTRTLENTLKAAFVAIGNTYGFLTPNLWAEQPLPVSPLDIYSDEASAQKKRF

T4: G4BD-Rps2(1–145) (S. cerevisiae) (UniProt P25443)
T4 sequence: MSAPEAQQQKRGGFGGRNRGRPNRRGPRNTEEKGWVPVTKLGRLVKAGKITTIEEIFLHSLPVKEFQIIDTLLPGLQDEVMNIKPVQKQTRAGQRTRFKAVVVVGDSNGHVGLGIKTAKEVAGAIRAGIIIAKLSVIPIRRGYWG

T5: G4BD-Rps2(1–145).R95R97K99>A (S. cerevisiae) (UniProt P25443)
T5 sequence: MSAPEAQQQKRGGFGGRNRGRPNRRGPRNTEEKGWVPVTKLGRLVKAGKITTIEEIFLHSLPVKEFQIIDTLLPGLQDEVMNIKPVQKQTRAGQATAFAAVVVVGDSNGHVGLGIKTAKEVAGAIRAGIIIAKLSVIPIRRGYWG

T6: G4BD-Rps2(76–145) (S. cerevisiae) (UniProt P25443)
T6 sequence: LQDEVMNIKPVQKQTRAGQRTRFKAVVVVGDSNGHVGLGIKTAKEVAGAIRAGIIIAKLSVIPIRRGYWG

T7: G4BD-Rps2(76–145).R95R97K99>A (S. cerevisiae) (UniProt P25443)
T7 sequence: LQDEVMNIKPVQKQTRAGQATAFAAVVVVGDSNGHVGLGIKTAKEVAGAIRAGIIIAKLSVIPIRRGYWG

T8: Rps2(1–145)-G4BD (S. cerevisiae) (UniProt P25443)
T8 sequence: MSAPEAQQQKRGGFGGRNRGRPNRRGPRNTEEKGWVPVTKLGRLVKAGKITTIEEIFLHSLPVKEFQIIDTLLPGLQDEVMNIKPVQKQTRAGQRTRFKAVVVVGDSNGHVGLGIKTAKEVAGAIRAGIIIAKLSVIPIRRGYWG

T9: Rps2(1–145).R95R97K99>A-G4BD (S. cerevisiae) (UniProt P25443)
T9 sequence: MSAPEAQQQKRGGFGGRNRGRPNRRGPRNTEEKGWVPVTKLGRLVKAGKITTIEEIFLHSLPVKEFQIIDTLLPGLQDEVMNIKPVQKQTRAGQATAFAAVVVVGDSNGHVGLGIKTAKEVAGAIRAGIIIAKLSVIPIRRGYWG

T10: Rps2(76–145)-G4BD (S. cerevisiae) (UniProt P25443)
T10 sequence: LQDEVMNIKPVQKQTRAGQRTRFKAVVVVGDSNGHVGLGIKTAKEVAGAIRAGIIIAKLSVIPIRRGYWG

T11: Rps2(76–145).R95R97K99>A-G4BD (S. cerevisiae) (UniProt P25443)
T11 sequence: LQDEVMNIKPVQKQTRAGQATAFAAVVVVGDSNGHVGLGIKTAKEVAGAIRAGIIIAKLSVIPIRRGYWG

T12: Rps2-G4BD (S. cerevisiae) (UniProt P25443)
T12 sequence: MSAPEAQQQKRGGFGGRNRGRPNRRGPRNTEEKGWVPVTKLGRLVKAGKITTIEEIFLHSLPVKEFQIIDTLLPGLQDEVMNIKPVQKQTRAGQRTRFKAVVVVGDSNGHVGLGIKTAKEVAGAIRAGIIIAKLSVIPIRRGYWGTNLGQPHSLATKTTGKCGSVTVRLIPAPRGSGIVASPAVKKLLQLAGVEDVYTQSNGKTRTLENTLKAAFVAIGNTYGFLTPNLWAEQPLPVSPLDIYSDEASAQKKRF


Tests used:
Experiment in all cases: two-hybrid; Yeast strain PJ69-4A; Rps2 variants N- or C-terminally fused to the Gal4 DNA-binding domain, Pse1 or Pse1.302C C-terminally fused to the Gal4 activation domain, 2µ high-copy plasmids; growth on -HLT (weak) and -ALT (strong), 3 days at 30 °C
[1] = target: T1, G4BD-Rps2.R95R97K99>A (S. cerevisiae)
[2] = target: T2, Rps2.R95R97K99>A-G4BD (S. cerevisiae)
[3] = target: T3, G4BD-Rps2 (S. cerevisiae)
[4] = target: T4, G4BD-Rps2(1–145) (S. cerevisiae)
[5] = target: T5, G4BD-Rps2(1–145).R95R97K99>A (S. cerevisiae)
[6] = target: T6, G4BD-Rps2(76–145) (S. cerevisiae)
[7] = target: T7, G4BD-Rps2(76–145).R95R97K99>A (S. cerevisiae)
[8] = target: T8, Rps2(1–145)-G4BD (S. cerevisiae)
[9] = target: T9, Rps2(1–145).R95R97K99>A-G4BD (S. cerevisiae)
[10] = target: T10, Rps2(76–145)-G4BD (S. cerevisiae)
[11] = target: T11, Rps2(76–145).R95R97K99>A-G4BD (S. cerevisiae)
[12] = target: T12, Rps2-G4BD (S. cerevisiae)

Row | Binder | binding [1] | binding [2] | binding [3] | binding [4] | binding [5] | binding [6] | binding [7] | binding [8] | binding [9] | binding [10] | binding [11] | binding [12]
1 | full-length Pse1-G4AD (protein, UniProt P32337 1-1089) MSALPEEVNRTLLQIVQAFASPDNQIRSVAEKALSEEWITENNIEYLLTFLAEQAAFSQDTTVAALSAVLFRKLALKAPPSSKLMIMSKNITHIRKEVLAQIRSSLLKGFLSERADSIRHKLSDAIAECVQDDLPAWPELLQALIESLKSGNPNFRESSFRILTTVPYLITAVDINSILPIFQSGFTDASDNVKIAAVTAFVGYFKQLPKSEWSKLGILLPSLLNSLPRFLDDGKDDALASVFESLIELVELAPKLFKDMFDQIIQFTDMVIKNKDLEPPARTTALELLTVFSENAPQMCKSNQNYGQTLVMVTLIMMTEVSIDDDDAAEWIESDDTDDEEEVTYDHARQALDRVALKLGGEYLAAPLFQYLQQMITSTEWRERFAAMMALSSAAEGCADVLIGEIPKILDMVIPLINDPHPRVQYGCCNVLGQISTDFSPFIQRTAHDRILPALISKLTSECTSRVQTHAAAALVNFSEFASKDILEPYLDSLLTNLLVLLQSNKLYVQEQALTTIAFIAEAAKNKFIKYYDTLMPLLLNVLKVNNKDNSVLKGKCMECATLIGFAVGKEKFHEHSQELISILVALQNSDIDEDDALRSYLEQSWSRICRILGDDFVPLLPIVIPPLLITAKATQDVGLIEEEEAANFQQYPDWDVVQVQGKHIAIHTSVLDDKVSAMELLQSYATLLRGQFAVYVKEVMEEIALPSLDFYLHDGVRAAGATLIPILLSCLLAATGTQNEELVLLWHKASSKLIGGLMSEPMPEITQVYHNSLVNGIKVMGDNCLSEDQLAAFTKGVSANLTDTYERMQDRHGDGDEYNENIDEEEDFTDEDLLDEINKSIAAVLKTTNGHYLKNLENIWPMINTFLLDNEPILVIFALVVIGDLIQYGGEQTASMKNAFIPKVTECLISPDARIRQAASYIIGVCAQYAPSTYADVCIPTLDTLVQIVDFPGSKLEENRSSTENASAAIAKILYAYNSNIPNVDTYTANWFKTLPTITDKEAASFNYQFLSQLIENNSPIVCAQSNISAVVDSVIQALNERSLTEREGQTVISSVKKLLGFLPSSDAMAIFNRYPADIMEKVHKWFA | no binding | no binding |  |  |  |  |  |  |  |  |  | 
2 | Pse1.302C-G4AD (domain or fragment, UniProt P32337 302-1089) SNQNYGQTLVMVTLIMMTEVSIDDDDAAEWIESDDTDDEEEVTYDHARQALDRVALKLGGEYLAAPLFQYLQQMITSTEWRERFAAMMALSSAAEGCADVLIGEIPKILDMVIPLINDPHPRVQYGCCNVLGQISTDFSPFIQRTAHDRILPALISKLTSECTSRVQTHAAAALVNFSEFASKDILEPYLDSLLTNLLVLLQSNKLYVQEQALTTIAFIAEAAKNKFIKYYDTLMPLLLNVLKVNNKDNSVLKGKCMECATLIGFAVGKEKFHEHSQELISILVALQNSDIDEDDALRSYLEQSWSRICRILGDDFVPLLPIVIPPLLITAKATQDVGLIEEEEAANFQQYPDWDVVQVQGKHIAIHTSVLDDKVSAMELLQSYATLLRGQFAVYVKEVMEEIALPSLDFYLHDGVRAAGATLIPILLSCLLAATGTQNEELVLLWHKASSKLIGGLMSEPMPEITQVYHNSLVNGIKVMGDNCLSEDQLAAFTKGVSANLTDTYERMQDRHGDGDEYNENIDEEEDFTDEDLLDEINKSIAAVLKTTNGHYLKNLENIWPMINTFLLDNEPILVIFALVVIGDLIQYGGEQTASMKNAFIPKVTECLISPDARIRQAASYIIGVCAQYAPSTYADVCIPTLDTLVQIVDFPGSKLEENRSSTENASAAIAKILYAYNSNIPNVDTYTANWFKTLPTITDKEAASFNYQFLSQLIENNSPIVCAQSNISAVVDSVIQALNERSLTEREGQTVISSVKKLLGFLPSSDAMAIFNRYPADIMEKVHKWFA | binds | binds | binds | binds | binds | binds | binds weakly | binds | binds | binds | binds weakly | binds
